Measured values published in PubChem BioAssay AID1347417 (National Center for Advancing Translational Sciences (NCATS), 2020).
The campaign covered roughly 120,000 compounds. About 5,300 (4.4%) were called active. This list was built around the results that the source calls inconclusive (neither active nor inactive); the mix of calls is not that of the screen. The call rests on the fitted dose curve; in most records, active means well fitted inhibition curve with a large enough effect; inconclusive means small, poorly fitted or top-dose-only effect; inactive means no such curve, though single readings can be large or run the other way. Where the call is inconclusive, the potency comes from a doubtful curve fit.

Experiment: qHTS Primary assay for Inhibitors of Plasmodium falciparum Dd2 growth in vitro; further: nearly all actives have a fitted effect of over 65% in size;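 on activity, negative = inhibition: plate controls were DMSO vehicle for no effect and reference drug for full effect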
Conditions: P. falciparum Dd2 growth, SYBR Green, 72 h; activity, negative = inhibition: at 28.9 µM (top of the series) unless noted; series mostly up to 28.9 µM
Method in brief: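 Readout: SYBR Green fluorescence, 485 nm excitation, 535 nm emission, after ~16 h lysis at 37C. Before that, Dd2-infected red cells (2.5% hematocrit) grew 72 h with compound, 29 uM top final concentration.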
Potency means the concentration at half of the fitted maximal effect; tags describe the fitted curve by direction and shape.

Row | SMILES | activity, negative = inhibition | Potency | outcome
1 | COc1ccc(Br)cc1CNC(=O)c1ccc2nc(C(C)C)oc2c1 | inactive: 9.56% | – | –
2 | COc1ccc(NC(=O)c2ccc3c(c2)N(C)C2CCCCN2C3=O)cc1OC (configuration not stated) | – | inconclusive: 3.98 µM [inhibitor, single point] | –
3 | CC(=O)N1CCC(Oc2ccc(Cl)cc2C(=O)N(C)Cc2nccn2C)CC1 | inactive: -5.82% | – | –
4 | Cc1cccc(CC(=O)N2CC(=O)Nc3ccc(C)cc3C2c2ccc(F)cc2)c1 (configuration not stated) | – | inconclusive: 15.8 µM [inhibitor, single point] | –
5 | CCN1CCN(C(=O)CC2Sc3ncccc3N(CC)C2=O)CC1 (configuration not stated) | inactive: 8.53% | – | –
6 | O=C(NCC(F)F)c1cc(Br)cn2ccnc12 | – | inactive | –
7 | COc1ccc(-c2cc(N3CCC(NC(=O)c4ccccc4Br)C3)n[nH]2)cc1 (configuration not stated) | – | – | inactive
8 | CCOC(=O)N1CCc2c(sc(NCc3cccc(F)c3)c2C(=O)Nc2ccc(OC)cc2)C1 | – | active: 7.94 µM | –
9 | COc1ccc(-n2cc(-c3ccccc3)nc2SCC(=O)Nc2ccccc2C)cc1 | – | inconclusive: 10 µM [inhibitor, single point] | –
10 | COC(=O)CC1Oc2ccc(F)cc2-n2cc(-c3ccc(C)cc3)nc21 (configuration not stated) | – | inconclusive: 1 µM [inhibitor, single point] | –
11 | COc1ccccc1Oc1ncccc1CNC(=O)c1ccccc1SC | inactive: -12.8% | – | –
12 | CCC(=O)N(C1CCOCC1)C1CCN(Cc2ccc(SC)cc2)CC1 | – | inconclusive: 12.6 µM [inhibitor, partial curve, poor fit] | –
13 | CCn1nccc1C(=O)N1CCC2(CC1)CC(N(Cc1ccc(F)cc1)C1CC1)CCO2 (configuration not stated) | – | inconclusive: 8.91 µM [inhibitor, single point] | –
14 | COC(=O)N1CCn2cc(C(=O)Nc3ccc(Cl)cc3Cl)nc2C1 | inactive: -4.56% | – | –
15 | COc1ccccc1C(=O)Nc1nnc(S(=O)(=O)N2CCN(c3ccc(F)cc3)CC2)s1 | inactive: -22.3% | – | –
16 | CC1(c2cccnc2)N(Cc2ccccc2)C(=O)OC12CCN(C(=O)COc1ccccc1)CC2 (configuration not stated) | – | active: 6.31 µM | –
17 | Cc1ccc(C(=O)NCCn2ccn3nc(-c4ccc(F)cc4)cc3c2=O)s1 | – | inconclusive: 0.794 µM [inhibitor, partial curve, poor fit] | –
18 | NC(=O)[C@H](Cc1cccs1)NC(=O)[C@@]1(O)C[C@@H](O)[C@H](O)[C@@H](NC(=O)NC2CCCCC2)C1 | inactive: 0.678% | – | –
19 | Cc1ccc(NC(=O)c2c(C)nc3sc(C(=O)Nc4ccc(F)cc4)c(N)c3c2-c2ccc(Cl)cc2)c(C)c1 | – | inconclusive: 10 µM [inhibitor, single point] | –
20 | COc1ccc(-c2cc(-c3ccc(OC)c(OC)c3)cn3cncc23)cc1 | – | inconclusive: 5.62 µM [inhibitor, full curve, poor fit] | –
21 | Cc1nc(N2CCN(C(=O)c3ccc(C)s3)CC2)cc(C(F)(F)F)n1 | – | inconclusive: 7.08 µM [inhibitor, partial curve] | –
22 | Cc1cccc(CN2C(=O)c3ccccc3S(=O)(=O)c3ccc(C(=O)N(C)Cc4ccccc4)cc32)c1 | – | inconclusive: 3.98 µM [inhibitor, single point] | –
23 | Cc1ccc(Nc2c(-c3ccc(N4CCOCC4)cc3)nc3cccc(C)n23)cc1 | inactive: -17.6% | – | –

Row | SMILES | activity, negative = inhibition | Potency | outcome
24 | Cn1nccc1C(=O)N1CC(c2ncc3c(-c4cccc(C(F)(F)F)c4)nccn23)C1 | – | inconclusive: 11.2 µM [inhibitor, partial curve] | –
25 | COc1cccc([S+](=O)([O-])N2CCCC3(CC(c4cccc(C(F)(F)F)c4)=NO3)C2)c1 (configuration not stated) | inactive: 1.81% | – | –
26 | Cc1nc(-c2c3n(c(=O)[nH]c2=O)CCCC3)no1 | inactive: 9.72% | – | –
27 | O=C(CN1CCOC(c2ccc(F)cc2)C1)NCc1ccccn1 (configuration not stated) | inactive: -0.876% | – | –
28 | CN(Cc1cccnc1)C(=O)CCC[C@H]1NC[C@@H]2C[C@H]1CN(Cc1ccccc1)C2 | inactive: -8.7% | – | –
29 | Cc1ccc(C(=O)N2CCCCCNC(=O)[C@@H]3CCCC[C@@H]32)s1 | inactive: -1.49% | – | –
30 | COc1ccc2c(c1)c(CN1CCC3(CC1)CC(C(=O)N1CCOCC1)N(C)C3)cn2C (configuration not stated) | – | inconclusive: 17.8 µM [inhibitor, single point] | –
31 | Cc1cc(C)c(Cn2c3ccccc3c3cnn(CC(=O)NCCC4=CCCCC4)c(=O)c32)c(C)c1 | – | inconclusive: 8.91 µM [inhibitor, partial curve, poor fit] | –
32 | CN(CCCNC1CCC2(CCNCC2)CC1)c1ccccc1 | – | inconclusive: 17.8 µM [inhibitor, single point] | –
33 | O=C1NCCC[C@@H]1NC(=O)[C@H]1CN(C(=O)NC2CCCCC2)CCN1C(=O)c1cncnc1 | inactive: 12.1% | – | –
34 | O=C(C1CCCC1)N1CCOC[C@H](Oc2ccc(C(F)(F)F)cc2)C1 | – | inconclusive: 10 µM [inhibitor, partial curve] | –
35 | COc1cc2c(cc1OC)C(COc1ccc3c(C)cc(=O)oc3c1)N(C(=O)Cc1ccccc1)CC2 (configuration not stated) | – | inconclusive: 1.26 µM [inhibitor, full curve, poor fit] | –
36 | Cc1cc2nc(CO[C@H]3CN(Cc4ccc(C(=O)O)cc4)C[C@H]3F)[nH]c2cc1C | – | – | inactive [at 44.1 µM]
37 | Cc1ccccc1NC(=O)c1nc(S(C)(=O)=O)ncc1N(Cc1ccco1)Cc1sccc1C | – | inconclusive: 15.8 µM [inhibitor, partial curve, poor fit] | –
38 | Cc1ccccc1OCC(=O)Nc1ccc(C(=O)OCc2cc(=O)n3ccsc3n2)cc1 | – | inconclusive: 7.08 µM [inhibitor, partial curve] | –
39 | COc1ccc(CC(=O)NC2CCCN(c3cc(-c4ccc(OC)cc4)[nH]n3)C2)cc1 (configuration not stated) | – | – | inactive
40 | c1ccc(C2CNC2)nc1 | inactive: -2.05% [at 76.6 µM] | – | –
41 | c1ccc(CN2CCCC3(CC(c4ccccn4)=NO3)C2)cc1 (configuration not stated) | inactive: -3.69% | – | –
42 | Cc1cn2nc(C(=O)N3CCSCC3)cc2c(N(C)Cc2ccccc2)n1 | – | inconclusive: 2.51 µM [inhibitor, single point] | –
43 | COc1ccc(S(=O)(=O)N2C[C@@H](Oc3ccccc3)C[C@@H]2C(=O)N2CCOCC2)cc1 | – | inconclusive: 15.8 µM [inhibitor, partial curve, poor fit] | –
44 | COCCn1ncc(N2CCCC(CC(=O)NCCc3ccccn3)C2)cc1=O (configuration not stated) | inactive: 27.3% | – | –
45 | CCOC(=O)c1cn(C2CN(C(=O)Cc3cccc(Cl)c3)C2)nn1 | – | inconclusive: 6.31 µM [inhibitor, partial curve, poor fit] | –
46 | CN(Cc1ccccc1C(F)(F)F)C(=O)c1cccc(Cl)c1 | – | inconclusive: 22.4 µM [inhibitor, single point] | –

Row | SMILES | activity, negative = inhibition | Potency | outcome
47 | Cc1cccc(S(=O)(=O)N(C)CC2CCOC2)c1 (configuration not stated) | inactive: 24.2% [at 5.79 µM] | – | –
48 | CCOC(=O)N1CCC(N2CCc3nc(-c4ccc(Cl)cc4)[nH]c3C2)C1 (configuration not stated) | – | inconclusive: 3.55 µM [inhibitor, partial curve, poor fit] | –
49 | COc1ccc(C2C(C(=O)Nc3ccccc3)=C(C)Nc3nc(-c4ccccc4)nn32)cc1OC (configuration not stated) | – | inconclusive: 5.62 µM [inhibitor, partial curve] | –
50 | COc1ccc(C)cc1NC(=O)N1c2ccccc2CC1c1nc(C2CC2)no1 (configuration not stated) | – | inconclusive: 0.141 µM [inhibitor, full curve, poor fit] | –
51 | CCn1nc(C)c(-c2cc(C(=O)NCCc3noc(-c4ccccc4)n3)no2)c1C | – | inconclusive: 0.0708 µM [inhibitor, full curve, poor fit] | –
52 | Cc1ccccc1C(=O)N1CCN(C(=O)c2nnn3c2COC(c2ccccc2)C3)CC1 (configuration not stated) | – | inconclusive: 17.8 µM [inhibitor, single point] | –
53 | CCn1c(C2CCCN(Cc3c(C(=O)O)[nH]c4ccc(C)cc34)C2)n[nH]c1=O (configuration not stated) | inactive: -16.2% | – | –
54 | CNC(=O)[C@@H]1CN(Cc2cccc(OC(F)(F)F)c2)C[C@H]1CO | – | inconclusive: 5.01 µM [inhibitor, partial curve] | –
55 | Fc1ccccc1CNCCCSc1nnnn1-c1ccccc1 | – | inconclusive: 7.08 µM [inhibitor, partial curve, poor fit] | –
56 | CCn1cc(S(=O)(=O)N2CC[C@@H]3COCCN(C)[C@@H]3C2)cn1 | inactive: 20.4% | – | –
57 | Cc1ccc(CNc2ccc3nnc(C(C)C)n3n2)o1 | – | inconclusive: 7.08 µM [inhibitor, partial curve, poor fit] | –
58 | Cc1ccc(OCC(=O)Nc2ccc(C(=O)OCc3cc(=O)n4nc(C5CC5)sc4n3)cc2)cc1 | inactive: -16.8% | – | –
59 | Cc1ccc(CN2CCN(C(=O)C3(Cc4cccnc4)CCCCC(=O)N3)CC2)cc1 (configuration not stated) | – | inconclusive: 12.6 µM [inhibitor, partial curve] | –
60 | CCN1CCN(C(=O)c2ccc3c(c2)N(Cc2cccc(Cl)c2)C(=O)c2ccccc2S3(=O)=O)CC1 | – | inconclusive: 17.8 µM [inhibitor, single point] | –
61 | CC1CCN(CC2CCCN(C(=O)Nc3ccccc3F)CC2)CC1 (configuration not stated) | – | inconclusive: 11.2 µM [inhibitor, partial curve, poor fit] | –
62 | CC1CCC(NC(=O)c2ccc3c(c2)N(Cc2cccc(F)c2)C(=O)c2ccccc2S3)CC1 (configuration not stated) | – | inconclusive: 17.8 µM [inhibitor, single point] | –
63 | CNC(=O)N1CCCC1c1nc(C2CN(C(=O)c3cnccn3)C2)no1 (configuration not stated) | – | inconclusive: 8.91 µM [inhibitor, single point] | –
64 | CN(Cc1ccc(F)cc1)Cc1ccccc1OCC(O)CN1CCCCC1 (configuration not stated) | – | inconclusive: 1 µM [inhibitor, partial curve, poor fit] | –
65 | COc1cc(OC)c(OC)cc1CN1CCc2nc(N3CCN(c4ncccn4)CC3)ncc2C1 | – | active: 7.94 µM | –
66 | CCOC(=O)c1cccc(NC(=O)c2cc3c(Cl)nc4ccc(C)cc4c3s2)c1 | – | inconclusive: 10 µM [inhibitor, single point] | –
67 | CC(C)CCNC(=O)c1cnc2c(c1)N(Cc1ccccc1)CCC2 | – | inconclusive: 15.8 µM [inhibitor, single point] | –
